These results are taken from the supplement of paper PMC11417369.

Some of the results follow.

The test relates to PfAP2-HC AP2 domain (GST-tagged). In words: gcPBM binding intensity (ln(normalized median fluorescence intensity)); higher = stronger DNA binding. In short, it runs like this:
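Alexa488 anti-GST antibody, scanned at 488 nm, detected GST-tagged P. falciparum DNA-binding domains that had been expressed in E. coli and incubated for 1 h on an Agilent 4 × 180k array. The array carried primer-extended double-stranded 36-bp intergenic genomic probes and negative controls. Binding intensity is the highest Masliner-normalised natural-log median intensity across replicate spots of either orientation of each probe.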
With AATAACTATATATGTGTGCACAAAAATTTGACATAA, the “gcPBM binding intensity (ln)” value came to 10.1. On to “AGTAGTCTGGAGAAGAGTACATAGTTTCTGGTAGCT [XGTACX_site2023]”, for which the “gcPBM binding intensity (ln)” value was determined as 9.64.

For the sequence “AGTTTTTATTAAAACAAAATTTAATTATAACGTTGA [XGTACX_negctrl_site298]”, the “gcPBM binding intensity (ln)” value came to 9.32. In the case of “CGTAGCCCCACTAACACACACAAATATACTCAATCA [CACACA_site5587]”, the “gcPBM binding intensity (ln)” value came to 10.3.

For “TTATATGTATGAACAAGTACATGCTATAATTATAAA [XGTACX_site1399]”, the “gcPBM binding intensity (ln)” value came out at 9.52. As to “TATATATATATATACACACATACATATATATATTTG [CACACA_site857]”, the “gcPBM binding intensity (ln)” value was 9.82. For the sequence “AACATATACACGAACACACACACATATATATATATA [CACACA_site502]”, the “gcPBM binding intensity (ln)” value is 11.6. As for “AAAACAAATGAGTACACACACATAAAAATTGAAAAT [CACACA_site199]”, the “gcPBM binding intensity (ln)” value was 10.2. With “TAAAGAAAAAAATGTTGTACTTTATGAAACATATTT [XGTACX_site412]”, the “gcPBM binding intensity (ln)” value stood at 9.46. With “ATATTTACCATTGTATGTACATATATAAAATATATC [XGTACX_site3237]” the figure was 9.69. In the case of “GTATATATATATATATGTACATATTTAGAGTTCTGT [XGTACX_site5357]”, the “gcPBM binding intensity (ln)” value stood at 9.67. To “TTTATTTTCATATGAACACACATATATATATTATAA [CACACA_site2369]” belongs 9.94; to TGTTCTGAACGGTTCATGCACTTTTTTTTGTTAATT, 9.65. On to “CTGTTTTTGTTTTAAAGTACATTGTTCAATATACAT [XGTACX_site5288]”, for which the “gcPBM binding intensity (ln)” value turned out to be 9.8. Regarding “TACAATGTGGATAATTGTACAAAACCGATAAGAGGG [XGTACX_site6453]”, the “gcPBM binding intensity (ln)” value turned out to be 9.89.

As to “TATATTCTACAAGAATTATGAATTGTCAGACCAAAT [CACACA_negctrl_site1101]”, the “gcPBM binding intensity (ln)” value was determined as 9.34. With “TTATATACCCTAATATGTTTTATTATTATTATATAT [TGCATGCA_negctrl_site6]” the figure was 9.77; with “ATATAAATAATATAAATACACACTAAAAAAAATATA [CACACA_site542]”, 9.84. Regarding “TAAACCTTAAAATATTTCTCATGTTTAACTTATATT [GTGCAC_negctrl_site233]”, the “gcPBM binding intensity (ln)” value worked out at 9.56. With “AAGAAAAACTTTACGTGTACCAAACATCCTGCCGAC [XGTACX_site4895]”, the “gcPBM binding intensity (ln)” value stood at 9.83.

Take “GTATTCTACAGACACATACACACATATATATATATA [CACACA_site3427]”: the “gcPBM binding intensity (ln)” value was found to be 10. For the sequence “AAAAAATAATTGAAGTGTACGTACAATGATTTTACT [XGTACX_site7663]”, the “gcPBM binding intensity (ln)” value stood at 9.87. Take “GGGAGAAATTTATACATACACACATATATATATTAT [CACACA_site4039]”: the “gcPBM binding intensity (ln)” value was 9.92. For “TTATAATATTGTGGTATACACACCTTACAAAAAGGT [CACACA_site2878]”, the “gcPBM binding intensity (ln)” value is 9.78. Take “TTATAAAAAAAAAAAAAAAATATATATATATATATA [XGTACX_negctrl_site592]”: the “gcPBM binding intensity (ln)” value is 9.13.
